Source: PubChem BioAssay AID686970 (National Center for Advancing Translational Sciences (NCATS), 2013)
Hit rate of the full screen: of about 360,000 compounds, about 6,000 (1.7%) were called active. The inconclusive results got no clear call from the source; some entries with a clear call stand among them for comparison. Calls follow the shape of the dose curve; as a rule, active = well fitted cell-killing curve with a large enough effect; inconclusive = small, poorly fitted or top-dose-only effect, or effect the other way; inactive = flat fitted curve, though single readings scatter. Potencies of inconclusive entries are left out as doubtful fits.

assay: qHTS for induction of synthetic lethality in tumor cells producing 2HG: qHTS for the HT-1080-NT fibrosarcoma cell line; details: HT-1080-NT fibrosarcoma viability, CellTiter-Glo ATP luminescence, 48 h; activity, negative = less viability: at 46.1 µM (top of the series);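 also: NT is the 2HG producing partner of a matched IDH1 knockdown line; nearly all actives have a fitted effect of over 55% in size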;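 as to activity, negative = less viability: 0% = DMSO-treated cells and -100% = media-only wells without cells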
How it was run: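 HT-1080-NT; 750 cells/well; 5% FBS RPMI; 48 h compound, 37 degrees C; CellTiter-Glo luminescence; curve fitting and curve-class assignment.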
Potency is read from the fitted curve at half-maximal effect; tags tell the direction and shape of the fitted curve.

Row | SMILES | Potency | activity, negative = less viability
1 | CCCSc1ccc2nc(NC(=O)OC)[nH]c2c1 | inconclusive [cytotoxic, full curve] | 
2 | O=C1NC(=S)NC(=O)C1=Cc1ccc(Br)s1 | inconclusive [cytotoxic, single point] | 
3 | C#CCN(C)[C@H](C)Cc1ccccc1 | inactive | 
4 | C[n+]1c(-c2ccccc2)cc(-c2ccc(O)cc2)cc1-c1ccccc1 | inactive | 
5 | COc1ccc2ccc(O)c(CN3CC=C(c4ccccc4)CC3)c2c1 | inactive | 
6 | C[C@H](CO)N1C[C@H](C)[C@@H](CN(C)S(=O)(=O)c2cccs2)Oc2ccc(NC(=O)Nc3ccc(C(F)(F)F)cc3)cc2C1=O | inconclusive [cytotoxic, single point] | 
7 | O=C1NCN(c2ccccc2)C12CCNCC2 | inactive | 
8 | CCC1=Nc2cc(C(=O)N3CCC4(CC3)OCCO4)ccc2Sc2ccccc21 | inactive | 
9 | O=c1[nH]c2ccccc2n1C1CCN(CCCC(c2ccc(F)cc2)c2ccc(F)cc2)CC1 | active: 16.4 µM | 
10 | O=C(NCCN1CCCCC1)c1ccc(Cl)nc1Cl | inactive | 
11 | CCOC(=O)[C@]12Cc3cc(C)ccc3[C@H]1N(C(C)C)C(=O)c1ccccc12 | active: 11.6 µM | 
12 | CC(NC1CCCCC1)C(O)C12CC3CC(CC(C3)C1)C2 (stereo not drawn) | inconclusive [cytotoxic, single point] | 
13 | Cc1nn(Cc2ccccc2)c(Cl)c1C(=O)OCC(=O)N1CCCC1 | inactive | 
14 | O=C1C(Cc2cnc[nH]2)NC(=S)N1c1ccccc1 (stereo not drawn) | inactive | 
15 | CCCCc1ccc(NC2=NCCCS2)cc1 | inconclusive [cytotoxic, partial curve] | 
16 | COc1ccc(-n2cnc3cc(C(=O)N4CCC5(CC4)OCCO5)ccc32)cc1 | inconclusive [cytotoxic, single point] | 
17 | O=[N+]([O-])c1ccc(NCc2ccc(Cl)cc2)c2ccncc12 | inactive | 
18 | O=C1NC(=O)N(Cc2ccc(F)cc2)C(=O)/C1=C\C=C\c1ccco1 | active: 20.6 µM | 
19 | CCSc1cc(C2C(C#N)=C(N)Oc3n[nH]c(C)c32)c(C)o1 (stereo not drawn) | inconclusive [cytotoxic, partial curve] | 
20 | CCOc1ccc(-c2c(C)n(-c3ccc(OCC)cc3)c3[n+]2CCCCC3)cc1 | active: 14.6 µM | 
21 | O=C1NC(=O)N(CCc2ccc(F)cc2)C(=O)/C1=C/C=C/c1ccccc1 | inconclusive [cytotoxic, single point] | 
22 | O=C1NC(=O)N(c2cccc(Br)c2)C(=O)/C1=C/c1ccsc1 | inconclusive [cytotoxic, single point] | 
23 | N#CC(C#N)=NNc1ccc([N+](=O)[O-])cc1 | active: 20.6 µM | 
24 | COC1C(O)C(C)OC(OC2C(Oc3cccc4c(O)c5c(=O)oc6ccc(C)c7c(=O)oc(c34)c5c67)OC(C)C(O)C2O)C1O (stereo not drawn) | inconclusive [cytotoxic, partial curve] | 

Row | SMILES | Potency | activity, negative = less viability
25 | CCCCCCCCn1sccc1=O | active: 6.51 µM | 
26 | O=P(Oc1ccccc1)(Oc1ccccc1)N1CCN(c2ccc(F)cc2)CC1 | inconclusive [cytotoxic, single point] | 
27 | COc1ccc(/C=N\NC(=O)c2cccc(F)c2)cc1COc1ccccc1 | active: 1.16 µM | 
28 | CCOC(=O)C1=C(N)OC2=C(C(=O)CCC2)[C@]12C(=O)N(CC(N)=O)c1ccccc12 | inactive | 
29 | C=C1C(O)[C@@H]2O[C@]3(CC[C@H](/C=C/C(C)[C@@H]4CC(C)=CC5(O[C@H](C[C@@](C)(O)C(=O)O)CCC5O)O4)O3)CC[C@H]2O[C@@H]1C(O)CC(C)[C@H]1OC2(CCCCO2)CCC1C (stereo partly drawn) | inconclusive [cytotoxic, full curve] | 
30 | COC(COC(N)=O)C1=C(N2CC2)C(=O)C(C)=C(N2CC2)C1=O (stereo not drawn) | active: 6.51 µM | 
31 | C[C@]12CCC(=O)C=C1CCC1C2CC[C@@]2(C)C1CC[C@@]2(O)CC#N (stereo partly drawn) | inactive | 
32 | Cc1cc(/C=C2\C(=O)NC(=O)N(Cc3ccccc3)C2=O)c(C)n1C1CC1 | inconclusive [rising, partial curve, poor fit] | 
33 | CC(C)CN1Cc2cc(-c3ccccc3)ccc2-n2nncc2C1 | inactive | 
34 | COc1ccccc1N1C(=O)NC(=O)/C(=C\c2cnn(-c3ccccc3)c2)C1=O | inconclusive [cytotoxic, single point] | 
35 | CC(C)OCCCNC(=O)c1c(N)n(Cc2cccs2)c2nc3ccccc3nc12 | active: 18.4 µM | 
36 | NC1CCc2cc(O)c(O)cc2C1 (stereo not drawn) | inactive | 
37 | C=CCNC(=O)c1c(N)n(CCN2CCOCC2)c2nc3ccccc3nc12 | inconclusive [cytotoxic, single point] | 
38 | CN(C)CCC=C1c2ccccc2CCc2ccccc21 | inconclusive [cytotoxic, single point] | 
39 | Cc1ccc2c(c1)C1CN(C)CCC1N2C(=O)/C=C/c1ccc2c(c1)OCO2 (stereo not drawn) |  | inconclusive: -34.3% [cytotoxic]
40 | CC(C)NS(=O)(=O)c1ccc(OCC(=O)N2CCN(Cc3ccc4c(c3)OCO4)CC2)c(Cl)c1 | inconclusive [cytotoxic, single point] | 
41 | Cc1cc(C)c(C(=O)N2CCC3(CC2)OCCO3)c(C)c1 | inactive | 
42 | CN1CCN(C(=O)COc2ccc3ccccc3c2)CC1 | inactive | 
43 | CCN(CC)CCNC(=O)c1c(O)c2ccccc2n(Cc2ccccc2)c1=O | inconclusive [cytotoxic, single point] | 
44 | CC(=O)OC(C)(C)/C=C/C(=O)C(C)(O)C1[C@H](O)C[C@@]2(C)C3CC=C4C(CC[C@@H](O)C4(C)C)[C@]3(CO)C(=O)C[C@]12C (stereo partly drawn) | active: 0.103 µM | 
45 | O=C1NC(=O)C(Cc2ccccc2)(Cc2ccccc2)C(=O)N1Cc1ccccc1 | inconclusive [cytotoxic, single point] | 
46 | CCCCn1c(O)c(C(C)=Nc2ccc3c(c2)CCC3)c(=O)[nH]c1=O | inconclusive [rising, partial curve] | 
47 | COc1ccc(CN2Cc3cnnn3-c3ccccc3C2C#N)cc1 (stereo not drawn) | active: 8.2 µM | 
48 | COc1ccc(CCNC(C)CCc2ccc(OC)cc2)cc1 (stereo not drawn) | inconclusive [cytotoxic, single point] | 
